Data on four compounds can be found in PubChem BioAssay (NCI).

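All cell lines were grown in 96-well plates and treated with compound for 48 hours. GI50 marks 50% less growth.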 Certain results were filed several times, with different values. They are shown here; other results are not. An entry can have further records. For some of these results: The records of an entry are repeats in other runs, samples, wells, individuals or studies. Marks in square brackets tell the records apart. Letters hold for one entry only.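 At the TGI there is no net growth.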 For some of these results: Records of one sample usually come from different ranges of test concentrations, which the source does not state; some values may only mark the edge of a range.

Among the test systems are CAKI-1 renal; CCRF-CEM leukemia; HCT-116 colon; K-562 leukemia; A549 NSCLC; M14 melanoma; RXF-631 renal; MOLT-4 leukemia; NCI-H226 lung; RPMI-8226 leukemia; SR leukemia.
Experiment in all cases: NCI tumour cell line growth inhibition, 48 h

Take `C[C@]12O[C@H](C[C@]1(O)CO)n1c3ccccc3c3c4c(c5c6ccccc6n2c5c31)CNC4=O`: the TGI with CAKI-1 renal was 337 nM [sample A, mean of 2 tests] and 4.2 µM [sample B, mean of 2 tests]; in the experiment on CCRF-CEM leukemia, 566 nM [sample A, mean of 2 tests] and 6.68 µM [sample B, mean of 2 tests]; in the experiment on HCT-116 colon, 2.73 µM [sample A, mean of 2 tests] and > 34.3 µM [sample B, mean of 2 tests]. Also, the GI50 with K-562 leukemia is 42.7 nM [sample A, mean of 2 tests] and 572 nM [sample B, 1 test].

On to `C/C1=C\[C@H](C)C[C@H](C)OC(=O)C[C@H](c2ccc(O)cc2)NC(=O)[C@@H](Cc2c(Br)[nH]c3ccccc23)N(C)C(=O)[C@H](C)NC(=O)[C@@H](C)C1`, for which the TGI was 657 nM and 31.5 µM in the experiment with A549 NSCLC; 624 nM and 8.63 µM with M14 melanoma; 646 nM and > 100 µM in the experiment on RXF-631 renal.

As to `CN(C)C[C@H]1CC[C@@H](CN(C)C)C1=O`, in the experiment with CAKI-1 renal, the TGI is 954 nM and 16 µM.

Take `CN(C)c1ccc(/C=C2\C[C@H]3[C@@H]4CC=C5C[C@@H](N6CCCC6)CC[C@]5(C)[C@H]4CC[C@]3(C)[C@H]2O)cc1`: the TGI is 5.06 µM and > 100 µM in the experiment on K-562 leukemia; 9.59 µM and > 100 µM in the experiment on MOLT-4 leukemia; 1.49 µM and 36.1 µM with NCI-H226 lung; 2.34 µM and 25 µM with RPMI-8226 leukemia; 1.94 µM and > 100 µM in the experiment with SR leukemia.
